In PubChem BioAssay AID504832 (National Center for Advancing Translational Sciences (NCATS), 2011):
About 18,000 (5.8%) of roughly 310,000 compounds were called active. The shares of active, inactive and inconclusive entries below differ from those in the screen. Calls come from the whole dose curve; as a rule, active = well fitted inhibition curve with a large enough effect; inconclusive = small, poorly fitted or top-dose-only effect, or another doubt; inactive = no such curve, though single readings can be large or run the other way. No potency is given beside an inconclusive call; the fits are too rough.

test: Primary qHTS for delayed death inhibitors of the malarial parasite plastid, 48 hour incubation; details: P. falciparum luciferase growth in erythrocytes; series mostly up to 28.7 µM
In short: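 Here the parasites carry a stable luciferase gene and grow inside erythrocytes in Albumax-based RPMI medium with compound for one erythrocytic cycle. Activity is scored as loss of luminescent signal.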
% is set by controls: 0 for no effect and ±100 for the full control effect; potency is the fitted concentration of half-maximal effect; tags give direction and shape of the fitted curve.

Row | SMILES | activity change, negative = inhibition | Potency
1 | COc1cccc(C(=O)Nc2nnc(-c3ccccc3)s2)c1 | inactive: -24% [at 0.00184 µM] | –
2 | Cc1ccc(N2CC(C(=O)Nc3cc(C(F)(F)F)ccc3N3CCCC3)CC2=O)cc1 (centres undefined) | – | inconclusive [inhibitor, single point]
3 | C/C(=N\NC(=O)c1ccc([N+](=O)[O-])cc1)c1cc2ccccc2oc1=O | – | inconclusive [inhibitor, single point]
4 | CCCCNc1nc2c(c(=O)n(Cc3ccccc3)c(=O)n2C)n1C | – | inconclusive [inhibitor, partial curve]
5 | CCc1cc(=O)oc2c(CNCc3c(F)cccc3Cl)c(O)ccc12 | – | active: 9.28 µM
6 | O=C(NCc1ccc(OC(F)(F)F)cc1)C12CN(Cc3ccccc3)CC1C(c1cccc([N+](=O)[O-])c1)=NO2 (centres undefined) | – | inconclusive [inhibitor, single point]
7 | CC1CCCN(CCCOc2ccc(Cl)cc2Br)C1 (centres undefined) | – | inconclusive [inhibitor, single point]
8 | COCCCN1CCN(C2Cc3ccccc3Sc3ccc(Cl)cc32)CC1 (centres undefined) | – | inconclusive [inhibitor, single point]
9 | O=C(Nc1ccc(F)c([N+](=O)[O-])c1)c1cccs1 | – | inactive
10 | COC(=O)c1ccc(C2c3[nH]c4ccccc4c3C[C@H]3C(=O)N(C4CC4)CC(=O)N23)cc1 (some centres undefined) | – | inconclusive [inhibitor, single point]
11 | O=C(COc1ccc(Cl)cc1Cl)N/N=C/c1ccccn1 | – | inactive
12 | O=c1c(Cc2ccc(Cl)cc2)c(O)ccn1Cc1cccc(Cl)c1 | – | inconclusive [inhibitor, single point]
13 | Cc1ccc(S(=O)(=O)N2CCN(C(=O)CCC(=O)NCCc3ccc(F)cc3)CC2)cc1 | – | inconclusive [inhibitor, partial curve]
14 | CCOC(=O)Cc1ccc(NC(=O)c2ccc(C(C)(C)C)cc2)cc1 | – | active: 4.15 µM
15 | CCN1CCN(c2ncnc3scc(-c4ccc(C)cc4)c23)CC1 | – | inactive
16 | O=C(N/N=C/c1ccc(N2CCOCC2)cc1)c1cccs1 | – | inactive
17 | O=C(N/N=C/c1ccc(Cl)c([N+](=O)[O-])c1)C1CC1 | – | inconclusive [inhibitor, partial curve, poor fit]
18 | Cc1ccc(S(=O)(=O)c2nc(S(=O)(=O)c3ccc(C)cc3)c(NCc3ccco3)s2)cc1 | – | inconclusive [inhibitor, single point]
19 | Cc1cccc(C(=O)N/N=C/c2cc(Br)c(Br)o2)c1 | – | inconclusive [inhibitor, single point]
20 | COc1ccc(C[C@H]2CN3C(=NC[C@@H]3Cc3ccccc3)N2C[C@H](C)NC(=O)CCC2CCCCC2)cc1 | – | active: 1.65 µM
21 | C=CCOC(=O)C1=C(C)NC(C)=C(C(=O)OCC=C)C1c1ccc(O)cc1 | – | inconclusive [inhibitor, partial curve, poor fit]
22 | COc1ccc(C(=O)C[n+]2ccc3c(c2)nc(-c2ccc(OC)cc2OC)n3C)cc1 | – | active: 11.7 µM

Row | SMILES | activity change, negative = inhibition | Potency
23 | CC(C)OC(=O)C[N+](C)(C)CCN1C(=O)C2C(c3ccccc3)C=CC(c3ccccc3)C2C1=O (centres undefined) | – | inconclusive [inhibitor, single point]
24 | CCN(CC)S(=O)(=O)c1ccc(F)cc1 | – | inconclusive [inhibitor, partial curve]
25 | O=C(CC1C(=O)N(c2ccccc2)C(=O)N1C1CCCCC1)Nc1ccccc1 (centres undefined) | – | inconclusive [inhibitor, single point]
26 | CC(Oc1ccccc1Br)C(=O)N1CCc2ccccc21 (centres undefined) | – | inactive
27 | O=C(COC(=O)c1cccnc1)Nc1cccc(Cl)c1 | – | inactive
28 | Cc1ccc(C2=NC3(CCCC3)NC2=S)cc1 | – | inactive
29 | O=C(NCC(c1ccco1)N1CCc2ccccc2C1)c1cccc([N+](=O)[O-])c1 (centres undefined) | – | inconclusive [inhibitor, single point]
30 | CCCn1c(NC(=O)C2CCN(C(=O)c3ccc(F)cc3)CC2)nc2ccccc21 | – | inconclusive [inhibitor, single point]
31 | COc1ccccc1Nc1nc2c(s1)CCC2 | – | inconclusive [inhibitor, single point]
32 | COCCOc1ccc(C(F)(F)F)cc1NC(=O)c1ccccc1 | – | inactive
33 | Cc1nn(C)c(C)c1S(=O)(=O)N(CC(=O)NCCCN1CC(C)CC(C)C1)c1ccc(C(C)C)cc1 (centres undefined) | – | inconclusive [inhibitor, partial curve, poor fit]
34 | O=C1c2oc3ccccc3c(=O)c2C(c2cccs2)N1CCCN1CCOCC1 (centres undefined) | – | inactive
35 | C=CCOc1ccc(C2N3CC4(C)CN2CC(CCC)(C3)C4=O)cc1 (centres undefined) | – | inconclusive [inhibitor, full curve, poor fit]
36 | COc1ccc(S(=O)(=O)N2CCOCC2)cc1NC(=O)CC1CCCC1 | – | inconclusive [inhibitor, partial curve]
37 | CCN(CC)c1ccc(S(=O)(=O)N2CCOCC2)cc1NC(=O)c1cc(=O)c2ccccc2o1 | – | inconclusive [inhibitor, partial curve]
38 | COc1cc(CN2CCN(Cc3cn(C)c4ccccc34)CC2CCO)cc(OC)c1 (centres undefined) | – | inconclusive [inhibitor, single point]
39 | CCCCc1ccc(NC(=S)NCc2cccs2)cc1 | – | inactive
40 | Clc1ncn(C23CC4CC(CC(C4)C2)C3)n1 | – | inconclusive [inhibitor, partial curve]
41 | COc1ccccc1C(=O)NCCNc1ccc([N+](=O)[O-])cc1Cl | – | inconclusive [inhibitor, single point]
42 | Cc1cccc(N(C(=O)c2ccc(CN3CCOCC3)o2)C(C(=O)NC(C)(C)C)c2ccc(F)cc2)c1 (centres undefined) | – | active: 8.28 µM
43 | CCC(=O)c1ccc(N2CCN(C(=O)c3ccc(Br)cc3)CC2)c(F)c1 | – | inactive
44 | Cc1ccc(-c2nc(CS(=O)CC(=O)NCCCN3CCN(Cc4ccccc4)CC3)c(C)o2)cc1 (centres undefined) | – | inconclusive [inhibitor, single point]
